Data on 1 molecule can be found in patent US20180169183A1 (KAHR MEDICAL, published 2018).

The target in this assay is T1, TRAIL receptor DR5 on Jurkat cells (human, UniProt O14763 56-440).
T1 construct: whole, on cells; also called DR5 receptor; TRAIL receptors
In words: flow cytometry at 4 C, loss of anti-DR5 staining on Jurkat cells. (A flow cytometer gives signals particle by particle.)

B1: Fn14-TRAIL Fusion Protein (other)
chain: [left out - about 60 residues]GPQRVAAHITGTRGRSNTLSSPNSKNEKALGRKINSWESSRSGHSFLSNLHLRNGELVIHEKGFYYIYSQTYFRFQEEIKENTKNDKQMVQYIYKYTSYPDPILLMKSARNSCWSKDAEYGLYSIYQGGIFELKENDRIFVSVTNEHLIDMDHEASFFGAFLVG
notes: also called FT
For B1, the binding result is reported as “binds”.
